Experimental data published in PubChem BioAssay AID2675 (National Center for Advancing Translational Sciences (NCATS), 2010).
Out of some 280,000 compounds screened, about 100 (0.036%) were called active. Inconclusive results, whose numbers are uncertain, are shown with a selection of clear calls. The call rests on the fitted dose curve; in most records, active means well fitted inhibition curve with a large enough effect in the signal ratio, with a control signal flat (not every such curve was filed as active); inconclusive means small, poorly fitted or top-dose-only effect, or effect the other way, or a change in a side signal; inactive means no such curve, though single readings can be large or run the other way; the % refers to the signal ratio. Where the call is inconclusive, the potency comes from a doubtful curve fit. “Side channel” marks fits to a control or component signal instead of the main read-out.
On the % scale 0 is the no-effect control and ±100 the full control effect; potency means the concentration at half of the fitted maximal effect; tags describe the fitted curve by direction and shape or compound fluorescence and quenching.

The compounds below were run against Muscleblind-like protein 1 (Homo sapiens) (UniProt Q9NR56) (assay: qHTS Assay for Inhibitors of MBNL1-poly(CUG) RNA binding). Conditions: TR-FRET MBNL1-His/biotin-(CUG)12 binding, 665/545 ratio; activity change, negative = inhibition: at 57.5 µM (top of the series).
Chain of UniProt Q9NR56 (Q9NR56 whole entry, looked up): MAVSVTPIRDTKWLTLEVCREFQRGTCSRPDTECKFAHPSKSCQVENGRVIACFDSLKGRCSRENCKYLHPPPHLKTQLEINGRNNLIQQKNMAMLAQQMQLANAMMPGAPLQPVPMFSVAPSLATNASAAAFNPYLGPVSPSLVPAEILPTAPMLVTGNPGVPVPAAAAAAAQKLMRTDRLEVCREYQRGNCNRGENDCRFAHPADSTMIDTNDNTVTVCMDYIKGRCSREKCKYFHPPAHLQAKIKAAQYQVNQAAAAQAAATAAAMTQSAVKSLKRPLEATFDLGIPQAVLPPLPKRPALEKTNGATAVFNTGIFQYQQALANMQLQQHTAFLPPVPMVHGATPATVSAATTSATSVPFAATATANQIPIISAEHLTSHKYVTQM
In short: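 MBNL1-His + Biotin-(CUG)12, cpd titration 92 nM–58 uM; Tb anti-His Ab 0.055 ng/ul, SA-XL665 5 nM (final); 60 min RT; ratiometric 665/545 nm, Ex 340 nm; normalized to buffer and full-complex controls.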
For `CCCS(=O)(=O)NCCc1csc(-c2ccc(OC)c(OC)c2)n1`, the Potency was inconclusive: 35.5 µM [quencher, side channel, single point].
`COc1cc(/C=N/N2C(=O)CSC2=S)cc(Br)c1O` was tested, and the Potency was inconclusive: 25.1 µM [quencher, partial curve].
With `C[C@H](NC(=O)Cc1ccccc1)C(=O)N1CCC2(CC1)NCCc1[nH]cnc12` the Potency was “inactive”.
`COc1ccc(C(=O)Oc2ccc(C(=S)N3CCOCC3)cc2)cc1` was tested, and the Potency was “inactive”.
`COc1ccc(-c2cc(=O)c3ccccc3s2)cc1` was tested, and the Potency was inconclusive: 11.2 µM [quencher, side channel, partial curve].
`COc1cc(C(=O)N2CCN(C3CCC(C)CC3)CC2)cc(OC)c1OC` (centres undefined) was tested, and the Potency was inconclusive: 126 µM [inhibitor, partial curve].
For `O=C(O)c1ccccc1C(=O)Nc1ccc(Oc2cccc(C(F)(F)F)c2)nc1`, the Potency was inconclusive: 28.2 µM [quencher, side channel, single point].
In the case of `COc1cccc(/C=C2\SC(=S)N(CC3CCCO3)C2=O)c1` (centres undefined), the Potency is reported as inconclusive: 12.6 µM [quencher, side channel, single point].
With `CCCOc1ccc(C(=O)NC(=S)NCc2cccnc2)cc1` the activity change, negative = inhibition was inactive: 12.7% [at 11.5 µM].
`COCCNC(=O)/C(C#N)=C/c1ccc(-c2ccc(S(=O)(=O)N3CCOCC3)cc2)o1` was tested, and the Potency was inconclusive: 3.55 µM [quencher, side channel, partial curve].
With `CCCOC(=O)c1ccc(NC(=O)c2ccccc2[N+](=O)[O-])cc1` the Potency was inconclusive: 15.8 µM [quencher, side channel, partial curve].
`CC1CCN(CCNC(=O)CN(C)S(=O)(=O)c2cccc3nsnc23)CC1` was tested, and the Potency was inconclusive: 14.1 µM [quencher, side channel, partial curve].
In the case of `O=C(O)c1ccc(CSc2nc(-c3ccc(Cl)cc3)cc(C(F)(F)F)n2)cc1`, the Potency is reported as “inactive”.
`COc1ccc(NC(=O)CCC(=O)N2CCCC2)c([N+](=O)[O-])c1` was tested, and the Potency was inconclusive: 8.91 µM [quencher, side channel, partial curve].
In the case of `CC1CCCC(C)N1CCCNC(=O)c1cc2c(s1)-c1ccccc1OC2` (centres undefined), the Potency is reported as inconclusive: 28.2 µM [quencher, single point].
In the case of `CCOC(=O)N1CCC(NC(=O)c2cnn3ccccc23)CC1`, the Potency is reported as inconclusive: 0.141 µM [quencher, side channel, full curve, poor fit].
For `O=[N+]([O-])c1ccccc1/C=C/C=N/n1c(-c2ccccc2)n[nH]c1=S`, the Potency was inconclusive: 15.8 µM [quencher, side channel, partial curve].
For `COc1ccc(Cc2nnc(NC(=O)c3ccccc3[N+](=O)[O-])s2)cc1`, the Potency was inconclusive: 28.2 µM [quencher, side channel, single point].
With `CCC(C)(C)NC(=O)C(C)OC(=O)c1nsc(Cl)c1Cl` (centres undefined) the Potency was inconclusive: 100 µM [inhibitor, partial curve].
For `COc1ccc(/C=C2/SC(=S)N(CCC(=O)N3CCN(C)CC3)C2=O)cc1`, the Potency was inconclusive: 5.62 µM [quencher, partial curve].
With `COc1cc(/C=C2/SC(=S)N(CC3CCCO3)C2=O)ccc1O` (centres undefined) the Potency was inconclusive: 14.1 µM [quencher, side channel, partial curve].
In the case of `CC1=C(C(=O)Nc2cccc([N+](=O)[O-])c2)C2(CCC(C)CC2)OC1=O` (centres undefined), the Potency is reported as inconclusive: 14.1 µM [quencher, side channel, partial curve].
`CCN1CCN(c2nc3c(C)cccn3c(=O)c2/C=C(\C#N)C(=O)NC)CC1` was tested, and the Potency was inconclusive: 22.4 µM [quencher, side channel, partial curve, poor fit].
`O=c1c2c([N+](=O)[O-])cc([N+](=O)[O-])cc2nc2ccccn12` was tested, and the Potency was inconclusive: 2.82 µM [quencher, side channel, full curve].
For `Nc1nc(N)c(N=Nc2ccc(S(N)(=O)=O)cc2)c(=O)[nH]1`, the Potency was inconclusive: 8.91 µM [quencher, side channel, partial curve].
For `COc1ccc(N(CC(=O)NCc2ccncc2)S(=O)(=O)c2ccc(C)c([N+](=O)[O-])c2)cc1`, the Potency was inconclusive: 31.6 µM [quencher, single point].
For `Cc1ccc(NC(=O)c2sc3ccccc3c2Cl)nc1`, the Potency was “inactive”.
For `COc1cccc(N=c2oc3ccc(OC)cc3cc2-c2nc3ccccc3[nH]2)c1`, the Potency was “inactive”.
In the case of `O=C(NCCCc1ccccc1)c1cc([N+](=O)[O-])ccc1Cl`, the Potency is reported as inconclusive: 3.55 µM [quencher, side channel, full curve].
In the case of `COc1ccc(S(=O)(=O)N2CCC(C(=O)N[C@@H](C)C(=O)NC3CC3)CC2)cc1`, the Potency is reported as “inactive”.
`CCO/C=C1\SC(=S)N(c2ccc(Cl)cc2)C1=O` was tested, and the Potency was inconclusive: 15.8 µM [quencher, side channel, partial curve].
With `O=C(CCN1C(=O)/C(=C/c2cccs2)SC1=S)NC1=NCCS1` the Potency was inconclusive: 4.47 µM [quencher, side channel, single point].
With `CC(=O)c1sc(=S)n(Cc2ccccc2)c1C` the Potency was “inactive”.
For `CCCCNS(=O)(=O)c1ccc(S(=O)(=O)NCc2ccncc2)cc1`, the Potency was “inactive”.
`O=C(NN1C(=O)c2ccccc2C1=O)C1CCCCC1` was tested, and the Potency was inconclusive: 31.6 µM [quencher, side channel, single point].
For `Cc1ccccc1C(=O)N1CCN=C1SCc1ccc([N+](=O)[O-])cc1`, the Potency was inconclusive: 25.1 µM [quencher, side channel, partial curve].
For `COc1ccc(/C=C2\C(=O)NC(=S)N2C(=O)c2ccc(C)cc2)cc1`, the Potency was inconclusive: 0.447 µM [quencher, side channel, full curve, poor fit].
`COc1ccc(CCNc2nc(-c3ccc(O)cc3)cs2)cc1OC` was tested, and the Potency was “inactive”.
For `COc1ccccc1-c1nnc(C2CCN(S(=O)(=O)c3cccc([N+](=O)[O-])c3)CC2)o1`, the Potency was inconclusive: 17.8 µM [quencher, side channel, partial curve].
